Data on one molecule can be found in paper doi:10.1101/847806 (bioRxiv, 2019).

This assay deals with UBE2D2 (human, UniProt P62837). The experiment in a line: ITC. On the technique in general: Isothermal titration calorimetry measures the heat released or taken up as one component is titrated into another.
UniProt P62837, sequence (P62837 whole entry): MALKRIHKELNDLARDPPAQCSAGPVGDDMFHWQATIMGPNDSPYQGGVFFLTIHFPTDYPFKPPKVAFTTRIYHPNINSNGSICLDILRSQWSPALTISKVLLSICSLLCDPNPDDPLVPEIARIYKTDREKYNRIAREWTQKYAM

B1: OTUB1 (C91S), catalytically inactive mutant (enzyme)
chain: not shown
B1: the binding result is recorded as “binds”.
